Data: article PMC6919601, “Identification of Plasmodium dipeptidyl aminopeptidase allosteric inhibitors by high throughput screening” (PLoS ONE, 2019)
Screen size: about 110,000 compounds; about 230 (0.21%) showed an effect of 50% or more. The list shows a part of the results.

Target: DPAP1 (Plasmodium falciparum, UniProt Q8IIJ9)
Assay: primary screen, percent inhibition; read by cleavage of a fluorogenic dipeptide substrate; higher = more effect of the substance
Set-up: species or system P. falciparum D10 trophozoite lysates; single well
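Note: 30 min substrate incubation versus DMSO and 10 µM JCP410 controls.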

Sequence of DPAP1 (Q8IIJ9 whole entry, looked up): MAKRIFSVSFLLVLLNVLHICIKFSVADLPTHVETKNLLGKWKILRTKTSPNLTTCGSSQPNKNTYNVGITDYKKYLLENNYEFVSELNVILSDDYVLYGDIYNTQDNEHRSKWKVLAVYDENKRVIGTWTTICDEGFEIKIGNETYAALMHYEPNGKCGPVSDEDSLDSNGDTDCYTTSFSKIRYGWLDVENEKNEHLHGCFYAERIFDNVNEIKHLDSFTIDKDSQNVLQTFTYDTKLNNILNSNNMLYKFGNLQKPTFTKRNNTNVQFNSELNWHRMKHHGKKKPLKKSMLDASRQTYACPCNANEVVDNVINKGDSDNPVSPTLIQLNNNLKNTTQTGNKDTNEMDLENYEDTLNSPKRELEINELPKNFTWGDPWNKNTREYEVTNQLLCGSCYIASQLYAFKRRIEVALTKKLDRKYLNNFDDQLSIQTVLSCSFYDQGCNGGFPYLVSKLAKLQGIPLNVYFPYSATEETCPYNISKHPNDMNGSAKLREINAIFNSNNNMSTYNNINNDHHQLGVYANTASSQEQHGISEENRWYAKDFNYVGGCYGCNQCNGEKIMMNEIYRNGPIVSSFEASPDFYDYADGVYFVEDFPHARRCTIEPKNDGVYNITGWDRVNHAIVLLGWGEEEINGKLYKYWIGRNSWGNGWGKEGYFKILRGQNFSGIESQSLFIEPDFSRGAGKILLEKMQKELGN

SMILES | % Inhibition @ 10 uM [%]
CN(C)c1ccc(/C=C/CN2CCN(c3ccc(F)cc3)CC2)cc1 | 1.74
CNS(=O)(=O)c1cn(CC(=O)N2CCn3c2nc2ccccc23)cc1S(=O)(=O)NC | -4.36
CCCN(CCC)C(=O)c1ccc(C)nc1 | 5.52
O=C1NC(=O)/C(=C\c2ccc(Br)o2)S1 | 4.86
CC(C(=O)NCC1CCCO1)n1c2ccccc2c2cnn(C)c(=O)c21 (stereo not drawn) | 4.55
COc1cccc(C2NC(=O)NC(C)=C2C(=O)Nc2cccc(C)c2C)c1 (stereo not drawn) | 0.812
Cc1ccc(S(=O)(=O)NC(CC(=O)O)c2ccccc2Cl)c(C)c1 (stereo not drawn) | 2.62
O=C(NCC12CC3CC(CC(C3)C1)C2)c1cc(-c2ccccc2F)no1 | -2.07
Cc1cc(=O)oc2cc(Cl)c(OCC(=O)c3ccccc3)cc12 | -2.87
Cc1cc(C)c(S(=O)(=O)N(C)CC(=O)N2CCN(c3ccccc3F)CC2)c(C)c1 | 1.19
c1ccc(CCN2CCC(N3CCC(N4CCCCC4)CC3)CC2)cc1 | -0.446
CCOc1ccc(NC(=N)Nc2nc(O)c3c(n2)CCCC3)cc1 | -6.64
Cc1onc(-c2ccccc2)c1C(=O)NCCCn1ccnc1 | 3.53
c1ccc(CN2C3=NCCCN3c3ccccc32)cc1 | -0.0505
CN(c1ccc(O)cc1)c1cc(Cl)c2nonc2c1[N+](=O)[O-] | 9.94
O=C1C2C3CCC(C3NCc3ccccc3)C2C(=O)N1Cc1ccccc1 (stereo not drawn) | -3.5
CCN(CC)Cn1c(=O)sc2ccccc21 | 2.46
CCCNC(=O)CSc1cn(CC(=O)N(C(C)C)C(C)C)c2ccccc12 | -0.544
COc1ccc(CN2CC(C)OC(C)C2)cc1Br (stereo not drawn) | -6.12
COc1cccc(CSc2nc3nccnc3c(=O)n2CCC(C)C)c1 | 3.36
N#CCNC(=O)[C@H](Cc1cn(C=O)c2ccccc12)NC(=O)c1ccccc1 | 4.33
O=C(Nc1ccccc1C(=O)O)c1cc(S(=O)(=O)N2CCOCC2)ccc1Cl | -7.27
O=S(=O)(c1ccc(Br)cc1)N1N=C(c2cccs2)CC1c1cccs1 (stereo not drawn) | -2.58
CCc1cc2c(cc3c(=O)n(CC(=O)NCCN4CCOCC4)nc(CC)n32)s1 | 3.29
CC(C)Oc1cc(N2CCOCC2)c(OC(C)C)cc1N | -16.5
COC(=O)c1cc(S(=O)(=O)N(C)C2CCCCC2)cn1C | -6.59

SMILES | % Inhibition @ 10 uM [%]
CC1CCCC(NC(=O)Cn2ncc3c(=O)oc4ccccc4c32)C1C (stereo not drawn) | -6.62
CCN1C(=S)NC2CC1(C)Oc1c(Cl)cccc12 (stereo not drawn) | -5.31
N#CC1=C(N)Oc2ncnc(O)c2C1c1cccc(F)c1 (stereo not drawn) | 0.726
Cc1cccc(CN2C(=O)N/C(=C/c3ccc(O)cc3)C2=O)c1 | 2.01
COc1ccc(C(CC(=O)c2ccccc2)Nc2ccc(Br)cc2)cc1 (stereo not drawn) | -1.74
CC(C)C[C@H](NC(=O)c1cc(Br)cc(Br)c1)C(=O)NCC#N | 0.174
CCC(C)N(C)C1CCN(C(=O)CNC(=O)/C=C/c2cccc(Cl)c2)CC1 (stereo not drawn) | 0.689
O=C(CSc1ncc(S(=O)(=O)c2ccc(Br)cc2)c(O)n1)NCc1ccccc1 | -1.01
CC1(C)OC2OC(COC(=O)c3ccccc3)C3OC(C)(C)OC3C2O1 (stereo not drawn) | -4.24
COCCCN1C(=O)C(O)=C(C(=O)c2ccccc2)C1c1ccc(Cl)cc1Cl (stereo not drawn) | -1.49
CC(C)(c1ccccc1)c1ccc(OCC(=O)N2CCOCC2)cc1 | 15
CCN(CC)CCCNC(=O)CS(=O)(=O)Cc1nc(-c2ccc(C)cc2)oc1C | -5.58
O=C(O)C1CCCN(S(=O)(=O)N2CCOCC2)C1 (stereo not drawn) | -1.6
CNc1c(NC(=O)CCC(=O)O)c(C)nn1-c1ccccc1 | -5.81
Cc1cc(=O)oc2c(C(=O)c3ccccc3)c(O)ccc12 | -3.06
Cc1sc2nc(SCC(=O)NCCOCCO)nc(N)c2c1C | 14.8
Cc1nc2ccn(Cc3cccs3)c(=O)c2cc1C(=O)NCC1CCCO1 (stereo not drawn) | 1.28
CCc1nn(CC(=O)NC2CCCCC2C)c(=O)c2cc3occc3n12 (stereo not drawn) | 1.38
COc1ccc(NC(=O)CSCc2ccc(C#N)cc2)c(OC)c1 | -2.8
CCCC12CN3CC(C)(CN(C1)C3c1ccccc1C)C2=O (stereo not drawn) | 5.44
c1ccc(Cc2nnc3n2N=C(c2ccccc2)CS3)cc1 | -2.91
C=CCn1c(=O)c(C(=O)NCc2ccncc2)c(O)c2ccccc21 | -0.643
C=CCOc1ccccc1/C=c1\sc2nc(-c3ccccc3)nn2c1=O | -1.52
C/C(=C\c1cccs1)C(=O)c1c(C)cc(C)nc1O | 3.47
COc1ccc(CNC(=O)C(C)Oc2ccccc2)cc1 (stereo not drawn) | -3.76
CC(=O)N1CCN(c2ccc(NCc3ccc(F)cc3)cc2)CC1 | 0.59

SMILES | % Inhibition @ 10 uM [%]
CC(=O)N/C(=C/c1ccccc1)C(=O)N1CCOCC1 | 0.545
Cc1nc(C(=O)N[C@@H](CC(C)C)C(=O)NCC#N)nn1-c1ccc(Cl)cc1Cl | 5.76
Cc1ccc(C)c(CN(CCCN(C)C)CCCN(C)C)c1 | -0.817
N#Cc1c(NC(=O)c2cccc(OC(F)F)c2)sc2c1CCC2 | 3.72
CC(C)CCNC(=O)c1nnc(-c2cccc(Cl)c2)o1 | -3.34
COCCNC(=O)c1ccc(CS(=O)c2ccccc2OC)o1 (stereo not drawn) | -4.96
O=C(O)Cn1nnc(-c2cccc(C(F)(F)F)c2)n1 | -3.53
CCOC(=O)C1=CN(C)C=C(C(=O)OCC)C1c1ccc(OC)cc1OC | -5.05
Cc1ccc(C(=O)NCc2cccs2)cc1C | 3.67
Cc1ccc(C(=O)CCC(=O)N2CCN(C(=O)c3ccco3)CC2)cc1 | -13
OCC1OC(Oc2cccc(Cl)c2)C(O)C(O)C1O (stereo not drawn) | 2.99
Cc1ccc(N2C(=O)SC(Nc3ccccc3C(=O)O)C2=O)cc1 (stereo not drawn) | 0.22
c1cncc(-c2nc(NCc3ccco3)c3ccccc3n2)c1 | -1.06
CCc1nnc(/N=C/c2cc(-c3ccccc3)oc2O)s1 | -4.84
CCc1nnc2c3ccccc3nc(NCc3ccc(F)cc3)n12 | -3.28
COc1ccc(OC)c(NC(=O)c2ccc(Cl)cc2)c1 | -6.27
Cc1cc(C)cc(OCC(=O)N(Cc2ccccc2)C2CCS(=O)(=O)C2)c1 (stereo not drawn) | -2.98
O=C(COc1ccc(Cl)cc1Cl)Nc1ccc([N+](=O)[O-])cc1 | -4.35
O=[N+]([O-])c1ccc(CNC23CC4CC(CC(C4)C2)C3)cc1 | -5.2
O=C(O)c1ccc(C/N=c2/c(N3CCCC3)c(O)c2=O)cc1 | -5.47
CN1CCC(N(C)Cc2cccs2)CC1 | -0.0404
O=C1CC(Cc2ccc(Cl)cc2)C(=O)N1CCC12CC3CC(CC(C3)C1)C2 (stereo not drawn) | -6.65
CCCC(=O)N1C2=C(C(=O)c3ccccc32)C(c2ccc(Cl)cc2)c2c1n(C)c(=O)n(C)c2=O (stereo not drawn) | -3.02
Cc1cccc(NC(=O)NC2CCCCC2)n1 | 1.16
Cc1nn(-c2ccccc2)c2c1C(c1ccc(Br)cc1F)C(C#N)=C(N)O2 (stereo not drawn) | -0.988
O=C(Nc1ccccc1)N1CCN(c2ccc([N+](=O)[O-])cc2)CC1 | -1.77

SMILES | % Inhibition @ 10 uM [%]
COc1ccc(C2NC(c3ccc(OC)cc3OC)C(C)C(=O)C2C)c(OC)c1 (stereo not drawn) | 1.83
CCOc1ccc(CCNC(=O)c2noc3c2COc2ccccc2-3)cc1OCC | 80.8
COC(=O)c1ccc(OCc2nn[nH]n2)cc1 | -2.05
O=C(CN1C(=O)c2ccccc2C1=O)NC(c1ccccc1)c1ccccc1 | -0.357
COc1cccc(-c2nc(O)c3c4c(sc3n2)CCCC4)c1 | 6.66
CN(c1cccc(NS(=O)(=O)c2ccc3c(c2)OCCO3)c1)S(C)(=O)=O | 1.57
O=C(Nc1cccc(Cl)c1Cl)c1cccc(Cl)c1 | -1.78
O=C(CSc1nc(-c2ccccc2)cs1)Nc1ccccc1 | -5.1
Cc1nonc1NC(=O)CSc1ncc(-c2ccccc2)n1-c1ccccc1 | -4.42
COc1ccc(NC(=O)CN(c2ccc(OC)cc2)S(C)(=O)=O)cc1 | 0.324
C=CCNC(=O)CC(NS(=O)(=O)c1ccc(F)cc1)c1ccc(OC)cc1 (stereo not drawn) | -2.14
Cc1ccc2oc(=O)c3cc(C(=O)NCCN4CCN(Cc5ccccc5)CC4)sc3c2c1 | -0.646
Cc1cccc(Oc2nc3c(C)cccn3c(=O)c2/C=C(\C#N)c2nc3ccccc3[nH]2)c1 | -5.1
CCc1nn(-c2cc(Oc3ccccc3)ncn2)c(N)c1C#N | 0.851
O=C(Cn1c(=O)c2cccn2c2cccnc21)N1CCN(c2ccccn2)CC1 | -6.3
COc1ccc(OC)c(NC(=O)CN(Cc2ccccc2)S(C)(=O)=O)c1 | -3.34
CCn1nc(C)c(C(=O)Nc2ccn(Cc3ccccc3)n2)c1C | 3.21
CCO/C(O)=C1\C(C)=NC2=C(C(=O)CC(C)(C)C2)C1c1ccccc1OC(C)C (stereo not drawn) | 4.1
O=C(CN1CCCCC1)Nc1c2c(nc3ccccc13)N(c1cccc(Cl)c1)CC2 | -1.54
Cc1ccc(CN2CCN(C(=O)c3ccncc3)CC2)cc1 | -5.17
CCN(CC)C(=O)CCn1cnc2onc(-c3ccc(F)cc3)c2c1=O | 2.76
CC1CCCN(C(=O)NC2CCCCC2)C1 (stereo not drawn) | -11.8
CCCCN(C)C(=O)c1sc2nc3n(c(=O)c2c1C)CCCCC3 | -2.58
O=C1CCN(C(=O)C2CCN(c3ncnc4c3nc3n4CCCCC3)CC2)CC1 | -1.46
